The experiment relates to intestinal flora. Put plainly: Intestinal flora function and structure in CUMS rats (metabolomics, 16sDNA high-throughput metagenomic sequencing). Conditions: 7 mg/kg/d, 7 days, FIG. 13.

Each structure is given as a SMILES string.

Take `C[C@]12C[C@@H](O)[C@@H]3C[C@@]1(O[C@@H]1O[C@H](CO)[C@@H](O)[C@H](O)[C@H]1O)[C@@]3(COC(=O)c1ccccc1)C(=O)O2` [Albiflorin]: the “intestinal flora metabolism, multiple comparison analysis (PLS-DA)” value is reported as “almost completely overlapped with the blank control group”.

The record behind these values is US20230095701A1, “Use of Albiflorin in Treatment of Coronavirus Pneumonia” (priority 2020, published 2023).
